# Assay results from paper PMC6602471.
# The list shows a part of the results. At the low end of the ranking, values are background and their order means little.
# Target: T1, ELK1 (UniProt P19419)
# T1 sequence: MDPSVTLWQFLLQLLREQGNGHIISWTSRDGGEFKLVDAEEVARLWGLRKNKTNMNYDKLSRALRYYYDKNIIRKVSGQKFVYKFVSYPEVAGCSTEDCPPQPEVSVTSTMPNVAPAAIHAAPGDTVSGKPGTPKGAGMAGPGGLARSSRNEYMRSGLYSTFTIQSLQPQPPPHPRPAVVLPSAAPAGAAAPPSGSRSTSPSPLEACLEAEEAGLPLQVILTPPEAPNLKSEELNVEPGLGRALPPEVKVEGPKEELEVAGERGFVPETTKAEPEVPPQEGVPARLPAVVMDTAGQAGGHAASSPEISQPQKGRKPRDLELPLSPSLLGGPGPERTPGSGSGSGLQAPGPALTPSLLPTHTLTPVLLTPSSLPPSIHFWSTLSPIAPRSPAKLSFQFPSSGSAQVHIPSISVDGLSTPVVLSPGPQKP
# Experiment: custom PBM
# Conditions: custom protein-binding microarray; buffer, salt, pH and temperature not stated; high values mean tight binding; double strand, one strand shown
row,Sequence,binding signal (log fluorescence intensity)
1,TCCGGCTACCAGCTACACCCACTTCAGGCCTTGTAGGTCTTGATTCGCTTGACGCTGCTG,8.83
2,CAGCATAGGACTTCTTCCCTGAAGCAATTGTTAACCGTCTTGATTCGCTTGACGCTGCTG,9.02
3,CTGGGACTTGACCCAACTCTGTCACGTGGGTCGTTTGTCTTGATTCGCTTGACGCTGCTG,8.75
4,TAAAGGGAAGACGGTTGTGGTAGTTCCGGGTATTTAGTCTTGATTCGCTTGACGCTGCTG,11.3
5,TGTCGGGTAAGGGAATGTAGATCACGTGAATGACAAGTCTTGATTCGCTTGACGCTGCTG,8.94
6,CAGCATAGGACTTCTTCCCTAAAGCAATTGATAACCGTCTTGATTCGCTTGACGCTGCTG,8.81
7,GCTGCTGCGGTGCATACCCCACCGGAAGTGACCCCGGTCTTGATTCGCTTGACGCTGCTG,11
8,GATTAATTTCTGCCCTTATTCGCACATGCCATAACAGTCTTGATTCGCTTGACGCTGCTG,8.87
9,TAAAGGGAAGACGGTTGTGGTAGTTCCGGGTATTATGTCTTGATTCGCTTGACGCTGCTG,11
10,CTGGGACTTGACCCAACTCTGCCACGTGGGTTGTTTGTCTTGATTCGCTTGACGCTGCTG,8.79
11,TGTCGGGTAAGGGAATGTAGATCACGTGAGTGAAAAGTCTTGATTCGCTTGACGCTGCTG,8.85
12,TCCGGCTCCCAGCTCCACCCACTTCAGGCCTTGTAGGTCTTGATTCGCTTGACGCTGCTG,8.92
13,GGAAAAAGGCCCAGGATAACACCGGAAGTGGGCTTAGTCTTGATTCGCTTGACGCTGCTG,11.1
14,CAGCATAGGACTTCTTCCCTGAAGCAATTGCTAACCGTCTTGATTCGCTTGACGCTGCTG,8.83
15,GGAAAAAGGCCCAGGGTAACACCGGAAGTGGACTTAGTCTTGATTCGCTTGACGCTGCTG,10.9
16,CAGCATAGGACTTCTTCCCTGAAGCAATTCATAACCGTCTTGATTCGCTTGACGCTGCTG,8.93
17,TACTGACTTATATATGCGAATGAACATGAATAGACCGTCTTGATTCGCTTGACGCTGCTG,8.92
18,TACTGACTTATATATGCGACTGCACATGAATAGACCGTCTTGATTCGCTTGACGCTGCTG,8.85
19,GATTAATTTCTGCCCTTATTCGCACGTTCCATAACAGTCTTGATTCGCTTGACGCTGCTG,8.74
20,TAAAGGGAAGACGGTTGTGGTAGTTCCGGGTATAAAGTCTTGATTCGCTTGACGCTGCTG,11.3
21,TAAAGGGAAGACGGTTGTGGTATTTCCGGGTATTAAGTCTTGATTCGCTTGACGCTGCTG,11.5

row,Sequence,binding signal (log fluorescence intensity)
1,CGGACGTGTCGTAAACGTCGGATATCCGGTTCTTCTGTCTTGATTCGCTTGACGCTGCTG,12.2
2,GGAAAAAGGCCCAGAGTAACACCGGAAGTGGGCTTAGTCTTGATTCGCTTGACGCTGCTG,11
3,GCTGGTGCGGTGCATACCCCACCGGATGTGACCCCGGTCTTGATTCGCTTGACGCTGCTG,10.2
4,CTGAGACTTGACCCAACTCTGCCACGTGGGTCGTTTGTCTTGATTCGCTTGACGCTGCTG,8.86
5,GTGTATACGATCCCATCCAACACACGTGTTAAAATGGTCTTGATTCGCTTGACGCTGCTG,9.01
6,CTGGAACTTGACCCAACTCTGCCACGTGGGTCGTTTGTCTTGATTCGCTTGACGCTGCTG,8.79
7,GCTGCTGCGCTGCATACCCCACCGGATGTGACCCCGGTCTTGATTCGCTTGACGCTGCTG,10.2
8,CTGGGACTTGACCCAACTCTGCCACGTAGGTCGTTTGTCTTGATTCGCTTGACGCTGCTG,8.81
9,GATTAATTTCTGCCCTTATTCGCACCTGCCATAACAGTCTTGATTCGCTTGACGCTGCTG,8.92
10,CCCGGCTACCAGCTCCACCCACTTCAGGCCTTGTAGGTCTTGATTCGCTTGACGCTGCTG,8.73
11,TGTCGGGTAAGGGAATGTAGATCACGTGAATGAATAGTCTTGATTCGCTTGACGCTGCTG,8.98
12,GCTGCTGCGGTGCATACCCCACCGGATGTGACCCCCGTCTTGATTCGCTTGACGCTGCTG,10.1
13,TACTGACTTATATATGCGAATGTACATGAATAGACCGTCTTGATTCGCTTGACGCTGCTG,9.03
14,GTGTATAGGATCCCATCCAACACACGTGTTAAACTGGTCTTGATTCGCTTGACGCTGCTG,8.9
15,TGTCGGGTAAGGGAATGTAGATCACGTGAACGAAAAGTCTTGATTCGCTTGACGCTGCTG,8.97
16,GCTGCTGCGGTGCATACCCCACCGGATGTGACGCCGGTCTTGATTCGCTTGACGCTGCTG,10.1
17,CACAATTTTTACAGTAATGTAGCACGGGTAACTCCTGTCTTGATTCGCTTGACGCTGCTG,8.87
18,TACTGACTTATATATGCGAATGCACAGGAATAGACCGTCTTGATTCGCTTGACGCTGCTG,8.83
19,GTGTATAGGATCCCATCCCACACACGTGTTAAAATGGTCTTGATTCGCTTGACGCTGCTG,9.07
20,TACTGACTTATATATGCGAATGCACATGAATACACCGTCTTGATTCGCTTGACGCTGCTG,8.85
